Reference: the BET-seq Pho4 binding data (Le et al. 2018)
Some of the results follow. These are noisy estimates, calculated here from bound and input reads.

molecular target: T1, Pho4 (S. cerevisiae) (UniProt P07270); experiment: relative binding free energy (BET-seq); higher = weaker binding; conditions: reference: library average
T1 sequence: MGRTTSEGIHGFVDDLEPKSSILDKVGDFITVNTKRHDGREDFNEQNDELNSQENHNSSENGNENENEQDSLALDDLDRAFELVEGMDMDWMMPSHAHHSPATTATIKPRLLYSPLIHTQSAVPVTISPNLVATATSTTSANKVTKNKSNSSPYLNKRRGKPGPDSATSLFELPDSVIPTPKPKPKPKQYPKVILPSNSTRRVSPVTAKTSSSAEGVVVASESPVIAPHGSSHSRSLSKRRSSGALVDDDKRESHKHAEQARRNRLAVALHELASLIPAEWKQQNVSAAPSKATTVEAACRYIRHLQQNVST

Sequence	relative binding free energy
GTTTACACGTGGGGAA	0.03 kcal/mol
AGTAGCACGTGTGTTA	0.02 kcal/mol
CTTGTCACGTGCGGGA	-0.03 kcal/mol
AATGGCACGTGGAAAT	0.14 kcal/mol
CTTAGCACGTGGGGGT	-0.28 kcal/mol
TTAGTCACGTGAGTGC	0.36 kcal/mol
CTGATCACGTGTGTTG	0.11 kcal/mol
TATTGCACGTGGTTTT	-0.02 kcal/mol
GTGTTCACGTGCGATG	0.28 kcal/mol
GGAGACACGTGCGTGG	-0.1 kcal/mol
AGATTCACGTGCGGTG	0.19 kcal/mol
GGTGGCACGTGGAGCG	0 kcal/mol
TATCTCACGTGAGTTT	0.24 kcal/mol
AGGTGCACGTGCGATG	-0.07 kcal/mol
GTGAGCACGTGCGCGT	-0.22 kcal/mol
ATCTACACGTGGTGGT	0.07 kcal/mol
GCGGTCACGTGGCGAG	0.08 kcal/mol
TATTACACGTGATGGC	0.34 kcal/mol
TATGGCACGTGGGGAT	-0.18 kcal/mol
CGGTTCACGTGGGAGT	0.18 kcal/mol
GGGGTCACGTGCTCGT	0.07 kcal/mol
ATTGTCACGTGGAAGT	0.19 kcal/mol
ATCTTCACGTGTAGTT	0.24 kcal/mol
TGGTACACGTGTGTAC	0.05 kcal/mol
GTGTTCACGTGTGACT	0.2 kcal/mol
TCGCTCACGTGGGTTT	0.15 kcal/mol

Sequence	relative binding free energy
TTGTGCACGTGATTTC	0.1 kcal/mol
ATCATCACGTGTTTGT	0.14 kcal/mol
AGCGGCACGTGTTGGA	0.02 kcal/mol
AGGGTCACGTGTTTGC	0.03 kcal/mol
ATTGGCACGTGTAATG	-0.01 kcal/mol
TTGGGCACGTGAGTCC	0.16 kcal/mol
CAGTTCACGTGGGATG	0.17 kcal/mol
TTAACCACGTGATGGG	0.08 kcal/mol
AGTGGCACGTGGCGTG	-0.14 kcal/mol
GGCTTCACGTGGGTAG	0.1 kcal/mol
GGTAGCACGTGGTATG	-0.15 kcal/mol
CGGTGCACGTGTGAGC	0.18 kcal/mol
CTAGGCACGTGATTTT	-0.08 kcal/mol
GGGACCACGTGGGTAG	-0.17 kcal/mol
AACGGCACGTGGTAGG	-0.27 kcal/mol
GGGCGCACGTGAATGG	0.16 kcal/mol
ATCGGCACGTGGCGTT	-0.19 kcal/mol
CAGGTCACGTGGGGCT	-0.01 kcal/mol
TTTCACACGTGTGTGT	-0.05 kcal/mol
CTGGGCACGTGTAGGG	-0.04 kcal/mol
TTTATCACGTGCGTAG	0.18 kcal/mol
TGTAACACGTGAAGGA	0.37 kcal/mol
TGTAACACGTGTTTAG	0.01 kcal/mol
GTTGTCACGTGATGCT	0.18 kcal/mol
CGGAACACGTGGTTGT	-0.07 kcal/mol
TGGGGCACGTGTGGCC	-0.01 kcal/mol

Sequence	relative binding free energy
ATGGGCACGTGGATTG	-0.01 kcal/mol
TCTTACACGTGATATG	0.21 kcal/mol
TTGTTCACGTGTAATC	0.32 kcal/mol
TGGTCCACGTGGGTAT	-0.11 kcal/mol
ATTCACACGTGTTGTT	-0.11 kcal/mol
GGTATCACGTGGTTGT	0.29 kcal/mol
TTTGTCACGTGTTTAT	0.1 kcal/mol
TTTTGCACGTGAGGAC	0.24 kcal/mol
GCATGCACGTGATGGG	0.21 kcal/mol
GGCTGCACGTGGTATA	-0.08 kcal/mol
TATGTCACGTGGCCTG	-0.03 kcal/mol
TGGGCCACGTGAGGCG	0.15 kcal/mol
GAATTCACGTGTTTGC	0.33 kcal/mol
ATTACCACGTGGTATG	-0.17 kcal/mol
GGGGACACGTGGCGTA	-0.06 kcal/mol
TGATTCACGTGGCTAG	0.23 kcal/mol
TTAGTCACGTGTATGT	0.12 kcal/mol
TGAGGCACGTGTAGTG	0 kcal/mol
TCATGCACGTGAAGTT	0.26 kcal/mol
CTAGTCACGTGAGTGA	0.34 kcal/mol
CGTGGCACGTGCATGT	0.03 kcal/mol
TTGTTCACGTGTCTAT	0.29 kcal/mol
TTAATCACGTGGGAGA	-0.12 kcal/mol
TTACGCACGTGTATGT	-0.16 kcal/mol
AGTAGCACGTGGAGTG	-0.16 kcal/mol
ATATGCACGTGGCTGT	-0.16 kcal/mol

Sequence	relative binding free energy
GGTTGCACGTGGAGGT	0.15 kcal/mol
GGGGCCACGTGCGATT	-0.01 kcal/mol
AGGCGCACGTGATGGC	0.04 kcal/mol
GTGTGCACGTGTTGCG	0.17 kcal/mol
GTGGGCACGTGGGACC	-0.14 kcal/mol
GCGGGCACGTGGTGAT	-0.21 kcal/mol
GTTATCACGTGTGACT	0.21 kcal/mol
TTCAGCACGTGTAAGG	-0.02 kcal/mol
GGTCCCACGTGGGGCG	-0.12 kcal/mol
GTGGCCACGTGACGGA	0.2 kcal/mol
AGGGACACGTGTCTGG	0.01 kcal/mol
ACAGTCACGTGGGTGG	-0.05 kcal/mol
GGGGACACGTGCAGTG	-0.08 kcal/mol
TAGCTCACGTGTGGTA	0.21 kcal/mol
TCAGGCACGTGTGTGG	-0.03 kcal/mol
TGCTACACGTGAATGG	0.48 kcal/mol
ATGTTCACGTGTAGAA	0.03 kcal/mol
GGTTGCACGTGGCATG	-0.17 kcal/mol
TATTGCACGTGTAAGA	0 kcal/mol
TGGTACACGTGGGGAA	0.06 kcal/mol
ACTTGCACGTGTGTAG	-0.02 kcal/mol
GGGGCCACGTGCGGGG	-0.26 kcal/mol
TGGTTCACGTGTGGGG	0.33 kcal/mol
TATCTCACGTGGTTAT	0.29 kcal/mol
TTGAACACGTGTAGCG	0.25 kcal/mol
ATCTACACGTGAGTTG	0.22 kcal/mol

Sequence	relative binding free energy
TGCAGCACGTGGGGGA	-0.26 kcal/mol
TTATCCACGTGGTTGT	-0.06 kcal/mol
TGGTTCACGTGTGAGA	0.45 kcal/mol
GGCGTCACGTGAAATT	0.46 kcal/mol
GAGTGCACGTGCATTG	0.06 kcal/mol
CCTTTCACGTGTTTGG	0.24 kcal/mol
GCAGGCACGTGTTGTA	0.01 kcal/mol
AGGGTCACGTGACTCG	0.34 kcal/mol
GGTCTCACGTGGTGCA	0.17 kcal/mol
TGGGCCACGTGAGGGT	0.13 kcal/mol
TATGGCACGTGTGTCA	-0.05 kcal/mol
AGGGTCACGTGTTGCT	0.17 kcal/mol
TGCATCACGTGAGGGA	0.32 kcal/mol
CGGTTCACGTGGTGTG	0.22 kcal/mol
TTTATCACGTGGACAG	0.07 kcal/mol
TATGTCACGTGGATCG	-0.02 kcal/mol
GTATTCACGTGAAGCG	0.44 kcal/mol
CAGGGCACGTGTTTTA	-0.12 kcal/mol
TCGTACACGTGGTTGG	-0.09 kcal/mol
ATGAACACGTGTGTGG	0.08 kcal/mol
TCTAGCACGTGGTTTG	-0.15 kcal/mol
TTTAACACGTGTTTGA	-0.04 kcal/mol
GTGTGCACGTGTGCAA	0 kcal/mol
TGCGTCACGTGCAGGG	-0.18 kcal/mol
GGTTGCACGTGCGGAT	-0.03 kcal/mol
ATTATCACGTGATTAT	0.08 kcal/mol

Sequence	relative binding free energy
GGCGCCACGTGGGGCG	-0.19 kcal/mol
CAATGCACGTGATAGG	0.14 kcal/mol
TTGGGCACGTGAGCCT	0.23 kcal/mol
CGTTTCACGTGAGGCG	0.26 kcal/mol
TCTGACACGTGAGGGT	0.25 kcal/mol
TATTGCACGTGTGAGA	0.09 kcal/mol
TGTACCACGTGAGGGA	0.11 kcal/mol
GGAGACACGTGATGTG	0.19 kcal/mol
ATTTGCACGTGCGTCG	-0.14 kcal/mol
AGATACACGTGTGAGG	-0.05 kcal/mol
GGCGACACGTGGATTG	0.18 kcal/mol
AAGGACACGTGAGTTG	0.25 kcal/mol
TGGTCCACGTGGGACG	0.06 kcal/mol
TAGGTCACGTGAAGGG	0.32 kcal/mol
ATAGGCACGTGTTTCG	-0.13 kcal/mol
GCGAGCACGTGAAGGG	0.23 kcal/mol
AATGGCACGTGCAGGG	-0.17 kcal/mol
GATGTCACGTGTTTTG	0.24 kcal/mol
GTACGCACGTGGGGGA	-0.19 kcal/mol
CATTCCACGTGGTGGT	-0.05 kcal/mol
AGTATCACGTGGCTCG	0.15 kcal/mol
AGTGACACGTGTGTCG	-0.03 kcal/mol
GCAATCACGTGTGTTG	0.16 kcal/mol
GTGAGCACGTGTGCGA	-0.15 kcal/mol
ATGGCCACGTGTTAGT	-0.15 kcal/mol
TATAGCACGTGATGTA	-0.05 kcal/mol

Sequence	relative binding free energy
TCATTCACGTGGGGTT	0.01 kcal/mol
TTATCCACGTGGTTCT	0.06 kcal/mol
AGTGTCACGTGATTCG	0.12 kcal/mol
GTACACACGTGGTTAG	0.03 kcal/mol
AAGAACACGTGGTTGT	-0.02 kcal/mol
GTTGACACGTGTCGGA	0.04 kcal/mol
CATGACACGTGAGGTG	0.33 kcal/mol
AGGGTCACGTGGCGCA	0.03 kcal/mol
AGTTTCACGTGCAATG	0.23 kcal/mol
ACTTGCACGTGAATGG	0.18 kcal/mol
AGTAGCACGTGTGCTT	-0.09 kcal/mol
TGATGCACGTGACTGG	0.03 kcal/mol
TAATTCACGTGTCGTT	0.34 kcal/mol
CTTTTCACGTGGGTGC	0.11 kcal/mol
GGGATCACGTGGGAAG	0.18 kcal/mol
TGGGTCACGTGCATGG	0.02 kcal/mol
GGGTGCACGTGGACAG	-0.13 kcal/mol
GTAGGCACGTGCAGGC	-0.01 kcal/mol
GCTAGCACGTGGTGGT	-0.03 kcal/mol
TGGTTCACGTGGGTGA	0.14 kcal/mol
GGCTTCACGTGGAGTG	0.15 kcal/mol
TGATTCACGTGGGACA	0.24 kcal/mol
AGTTACACGTGCGAGG	0.03 kcal/mol
CTTAACACGTGAGGTG	0.09 kcal/mol
CAGGGCACGTGGGCAG	-0.19 kcal/mol
AAGGGCACGTGTACAT	-0.06 kcal/mol

Sequence	relative binding free energy
CGGGACACGTGTTCTG	0.11 kcal/mol
TTTTTCACGTGGAGGA	0.31 kcal/mol
TTTTGCACGTGTCTAT	-0.1 kcal/mol
TGATGCACGTGGCGAT	-0.16 kcal/mol
TAATGCACGTGAGGCA	0.34 kcal/mol
ATGTGCACGTGAGTAT	0.22 kcal/mol
ATAAGCACGTGTCTTG	0.03 kcal/mol
GATGACACGTGGGCTT	-0.08 kcal/mol
CGTTGCACGTGGGTGA	-0.21 kcal/mol
GGGTTCACGTGATCGG	0.4 kcal/mol
TAAATCACGTGATGTG	0.21 kcal/mol
GTATGCACGTGGGTGG	-0.14 kcal/mol
AAATACACGTGGTGTA	-0.18 kcal/mol
ATGAACACGTGTCGTG	0.03 kcal/mol
GTGAGCACGTGTGCTG	-0.12 kcal/mol
TTGTTCACGTGGGCTT	0.23 kcal/mol
GTGACCACGTGGTGTT	0.03 kcal/mol
TATTACACGTGTTAGC	0.1 kcal/mol
CTGTTCACGTGGTTAG	0.31 kcal/mol
ATATGCACGTGGCGTG	-0.12 kcal/mol
GAGGCCACGTGGGGGC	-0.08 kcal/mol
CGAATCACGTGTGGGG	0.25 kcal/mol
TGTAGCACGTGTTTTT	-0.08 kcal/mol
AGTGACACGTGATTGG	0.24 kcal/mol
TTCTTCACGTGATAGG	0.29 kcal/mol
TGATTCACGTGGGTCA	0.15 kcal/mol

Sequence	relative binding free energy
GTTGACACGTGGTCTA	-0.07 kcal/mol
GGTGGCACGTGTAACT	-0.02 kcal/mol
TTAGGCACGTGGGGGC	-0.23 kcal/mol
GGTAGCACGTGGGGTT	-0.13 kcal/mol
GTTGGCACGTGCTGGT	-0.09 kcal/mol
ATTGACACGTGTAGAT	0.2 kcal/mol
TGATTCACGTGCTGGT	0.22 kcal/mol
TAGGTCACGTGAGTTT	0.3 kcal/mol
TTGGGCACGTGCGTTA	-0.17 kcal/mol
GGTGTCACGTGAGTAG	0.3 kcal/mol
TATCACACGTGATTGT	0.19 kcal/mol
AGTTACACGTGTGGGC	0.15 kcal/mol
ATAGGCACGTGTGTCG	-0.16 kcal/mol
TTTGACACGTGCGTAT	-0.08 kcal/mol
TGTCTCACGTGTTGTC	0.11 kcal/mol
TTTTACACGTGGGTCG	-0.05 kcal/mol
TTGGTCACGTGGGATT	0.15 kcal/mol
AGGTTCACGTGAGAGA	0.56 kcal/mol
TTTTTCACGTGTTAGC	0.35 kcal/mol
CGTCTCACGTGAAGGT	0.37 kcal/mol
GTGTACACGTGGGTAT	-0.17 kcal/mol
CATGTCACGTGTGAAG	0.19 kcal/mol
